Experimental data published in the supplement of paper PMC7125110.
± gives the standard error. This sample is rich in variants without activity.

B1: glmS ribozyme (parent)
chain: AUAAAAGCGCCAGAACUACAGAAAUGUAGUUGACGAGGAGGAGGUUUAUCGAAUUUUCGGCGGAUGCCUCCAAA

Key:
Details in all cases: with glucosamine-6-phosphate
[1] = variants of: B1; test: self-cleavage kobs at 40 uM GlcN6P; higher = faster cleavage; RNA array
Method in brief: (§1)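 Barcoded ribozyme variants, transcribed in situ by E. coli RNA polymerase on sequenced MiSeq chips, were followed via a hybridised Cy3 probe at 37 °C. Glucosamine-6-phosphate ranged from 40 μM to 10 mM in HEPES/KCl/Mg(OAc)2 buffer. kobs came from decay fits to per-tile medians, and kcat and KM from weighted Michaelis–Menten fits.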

[2] = variants of: B1; test: self-cleavage kobs at 160 uM GlcN6P; higher = faster cleavage; RNA array
Method in brief: as §1

[3] = variants of: B1; test: self-cleavage kobs at 2500 uM GlcN6P; higher = faster cleavage; RNA array
Method in brief: as §1

[4] = variants of: B1; test: self-cleavage kobs at 10000 uM GlcN6P; higher = faster cleavage; RNA array
Method in brief: as §1

[5] = variants of: B1; test: self-cleavage kobs at 640 uM GlcN6P; higher = faster cleavage; RNA array
Method in brief: as §1

## A6C G35A U56A
[1]
  self-cleavage kobs at 40 uM GlcN6P: < 1e-05 s⁻¹

## A6C G35U
[1]
  self-cleavage kobs at 40 uM GlcN6P: < 1e-05 s⁻¹
[2]
  self-cleavage kobs at 160 uM GlcN6P: < 1e-05 s⁻¹
[3]
  self-cleavage kobs at 2500 uM GlcN6P: < 1e-05 s⁻¹
[4]
  self-cleavage kobs at 10000 uM GlcN6P: < 1e-05 s⁻¹

## A6C G38U
[1]
  self-cleavage kobs at 40 uM GlcN6P: < 1e-05 s⁻¹
[5]
  self-cleavage kobs at 640 uM GlcN6P: < 1e-05 s⁻¹
[2]
  self-cleavage kobs at 160 uM GlcN6P: < 1e-05 s⁻¹
[4]
  self-cleavage kobs at 10000 uM GlcN6P: < 1e-05 s⁻¹

## A6C G43A
[1]
  self-cleavage kobs at 40 uM GlcN6P: < 1e-05 s⁻¹
[5]
  self-cleavage kobs at 640 uM GlcN6P: < 1e-05 s⁻¹
[2]
  self-cleavage kobs at 160 uM GlcN6P: < 1e-05 s⁻¹
[4]
  self-cleavage kobs at 10000 uM GlcN6P: < 1e-05 s⁻¹

## A6C G44U G51A
[1]
  self-cleavage kobs at 40 uM GlcN6P: < 1e-05 s⁻¹
[4]
  self-cleavage kobs at 10000 uM GlcN6P: < 1e-05 s⁻¹

## A6C G51A U55G
[1]
  self-cleavage kobs at 40 uM GlcN6P: < 1e-05 s⁻¹

## A6C U30C
[1]
  self-cleavage kobs at 40 uM GlcN6P: < 1e-05 s⁻¹
[5]
  self-cleavage kobs at 640 uM GlcN6P: < 1e-05 s⁻¹
[2]
  self-cleavage kobs at 160 uM GlcN6P: < 1e-05 s⁻¹
[3]
  self-cleavage kobs at 2500 uM GlcN6P: < 1e-05 s⁻¹

## A6C U47C U54A G59A C70U
[1]
  self-cleavage kobs at 40 uM GlcN6P: < 1e-05 s⁻¹

## A6C U49G C67U
[1]
  self-cleavage kobs at 40 uM GlcN6P: < 1e-05 s⁻¹

## A6C U55C C70U
[1]
  self-cleavage kobs at 40 uM GlcN6P: < 1e-05 s⁻¹

## A6C U56A
[1]
  self-cleavage kobs at 40 uM GlcN6P: < 1e-05 s⁻¹
[2]
  self-cleavage kobs at 160 uM GlcN6P: < 1e-05 s⁻¹

## A6C U65C
[1]
  self-cleavage kobs at 40 uM GlcN6P: < 1e-05 s⁻¹

## A6C U65G
[1]
  self-cleavage kobs at 40 uM GlcN6P: < 1e-05 s⁻¹

## A6G A12U A36G U54A
[1]
  self-cleavage kobs at 40 uM GlcN6P: < 1e-05 s⁻¹

## A6G A14C A15U U45G A52U
[1]
  self-cleavage kobs at 40 uM GlcN6P: < 1e-05 s⁻¹
[4]
  self-cleavage kobs at 10000 uM GlcN6P: < 1e-05 s⁻¹

## A6G A14C A48U C50U U55G C68A
[1]
  self-cleavage kobs at 40 uM GlcN6P: < 1e-05 s⁻¹
[5]
  self-cleavage kobs at 640 uM GlcN6P: < 1e-05 s⁻¹
[2]
  self-cleavage kobs at 160 uM GlcN6P: < 1e-05 s⁻¹
[3]
  self-cleavage kobs at 2500 uM GlcN6P: < 1e-05 s⁻¹
[4]
  self-cleavage kobs at 10000 uM GlcN6P: < 1e-05 s⁻¹

## A6G A14G G32C G44A A53C U65G C68U
[1]
  self-cleavage kobs at 40 uM GlcN6P: < 1e-05 s⁻¹
[3]
  self-cleavage kobs at 2500 uM GlcN6P: < 1e-05 s⁻¹

## A6G A15C
[1]
  self-cleavage kobs at 40 uM GlcN6P: < 1e-05 s⁻¹

## A6G A15C C16U
[1]
  self-cleavage kobs at 40 uM GlcN6P: < 1e-05 s⁻¹
[4]
  self-cleavage kobs at 10000 uM GlcN6P: 4.37e-05 ± 1.5e-05 s⁻¹

## A6G A15C U31G A64G C70U
[1]
  self-cleavage kobs at 40 uM GlcN6P: < 1e-05 s⁻¹
[4]
  self-cleavage kobs at 10000 uM GlcN6P: < 1e-05 s⁻¹

## A6G A33U C58G C67U C71A
[1]
  self-cleavage kobs at 40 uM GlcN6P: 5.47e-05 ± 2.5e-05 s⁻¹
[5]
  self-cleavage kobs at 640 uM GlcN6P: 0.000593 ± 0.00019 s⁻¹
[2]
  self-cleavage kobs at 160 uM GlcN6P: 9.68e-05 ± 2.9e-05 s⁻¹
[3]
  self-cleavage kobs at 2500 uM GlcN6P: 0.000109 ± 4.9e-05 s⁻¹

## A6G A33U U46A
[1]
  self-cleavage kobs at 40 uM GlcN6P: < 1e-05 s⁻¹

## A6G A42U
[1]
  self-cleavage kobs at 40 uM GlcN6P: < 1e-05 s⁻¹
[5]
  self-cleavage kobs at 640 uM GlcN6P: < 1e-05 s⁻¹
[2]
  self-cleavage kobs at 160 uM GlcN6P: < 1e-05 s⁻¹
[4]
  self-cleavage kobs at 10000 uM GlcN6P: < 1e-05 s⁻¹

## A6G A52C
[1]
  self-cleavage kobs at 40 uM GlcN6P: < 1e-05 s⁻¹
[5]
  self-cleavage kobs at 640 uM GlcN6P: < 1e-05 s⁻¹
[3]
  self-cleavage kobs at 2500 uM GlcN6P: < 1e-05 s⁻¹
[4]
  self-cleavage kobs at 10000 uM GlcN6P: < 1e-05 s⁻¹

## A6G A52U C61G
[1]
  self-cleavage kobs at 40 uM GlcN6P: < 1e-05 s⁻¹

## A6G C10A C58G
[1]
  self-cleavage kobs at 40 uM GlcN6P: < 1e-05 s⁻¹

## A6G C10U
[1]
  self-cleavage kobs at 40 uM GlcN6P: < 1e-05 s⁻¹
[5]
  self-cleavage kobs at 640 uM GlcN6P: < 1e-05 s⁻¹
[4]
  self-cleavage kobs at 10000 uM GlcN6P: < 1e-05 s⁻¹

## A6G C16G C67A
[1]
  self-cleavage kobs at 40 uM GlcN6P: < 1e-05 s⁻¹

## A6G C16G G41C A42C C68A
[1]
  self-cleavage kobs at 40 uM GlcN6P: < 1e-05 s⁻¹
[4]
  self-cleavage kobs at 10000 uM GlcN6P: < 1e-05 s⁻¹

## A6G C34A
[1]
  self-cleavage kobs at 40 uM GlcN6P: < 1e-05 s⁻¹
[5]
  self-cleavage kobs at 640 uM GlcN6P: < 1e-05 s⁻¹
[2]
  self-cleavage kobs at 160 uM GlcN6P: < 1e-05 s⁻¹
[3]
  self-cleavage kobs at 2500 uM GlcN6P: < 1e-05 s⁻¹
[4]
  self-cleavage kobs at 10000 uM GlcN6P: < 1e-05 s⁻¹

## A6G C50A C70U
[1]
  self-cleavage kobs at 40 uM GlcN6P: < 1e-05 s⁻¹

## A6G G7C U45G C67U
[1]
  self-cleavage kobs at 40 uM GlcN6P: < 1e-05 s⁻¹
[3]
  self-cleavage kobs at 2500 uM GlcN6P: < 1e-05 s⁻¹

## A6G G7U A12C A42C
[1]
  self-cleavage kobs at 40 uM GlcN6P: < 1e-05 s⁻¹

## A6G G9U G41A A48G G59U
[1]
  self-cleavage kobs at 40 uM GlcN6P: < 1e-05 s⁻¹

## A6G G13A C16U U47A
[1]
  self-cleavage kobs at 40 uM GlcN6P: < 1e-05 s⁻¹
[4]
  self-cleavage kobs at 10000 uM GlcN6P: < 1e-05 s⁻¹

## A6G G13C U56G
[1]
  self-cleavage kobs at 40 uM GlcN6P: < 1e-05 s⁻¹
[4]
  self-cleavage kobs at 10000 uM GlcN6P: < 1e-05 s⁻¹

## A6G G29U C70A
[1]
  self-cleavage kobs at 40 uM GlcN6P: < 1e-05 s⁻¹
[4]
  self-cleavage kobs at 10000 uM GlcN6P: < 1e-05 s⁻¹

## A6G G32A G35U
[1]
  self-cleavage kobs at 40 uM GlcN6P: < 1e-05 s⁻¹
[4]
  self-cleavage kobs at 10000 uM GlcN6P: < 1e-05 s⁻¹

## A6G G32C A33C G41U G43C
[1]
  self-cleavage kobs at 40 uM GlcN6P: < 1e-05 s⁻¹
[4]
  self-cleavage kobs at 10000 uM GlcN6P: < 1e-05 s⁻¹

## A6G G32C U47A A53G
[1]
  self-cleavage kobs at 40 uM GlcN6P: < 1e-05 s⁻¹
[4]
  self-cleavage kobs at 10000 uM GlcN6P: < 1e-05 s⁻¹

## A6G G32U
[1]
  self-cleavage kobs at 40 uM GlcN6P: < 1e-05 s⁻¹

## A6G G35U A52C C70G
[1]
  self-cleavage kobs at 40 uM GlcN6P: < 1e-05 s⁻¹

## A6G G38U G59U
[1]
  self-cleavage kobs at 40 uM GlcN6P: < 1e-05 s⁻¹

## A6G G43U
[1]
  self-cleavage kobs at 40 uM GlcN6P: < 1e-05 s⁻¹
[5]
  self-cleavage kobs at 640 uM GlcN6P: < 1e-05 s⁻¹
[2]
  self-cleavage kobs at 160 uM GlcN6P: < 1e-05 s⁻¹
[3]
  self-cleavage kobs at 2500 uM GlcN6P: < 1e-05 s⁻¹
[4]
  self-cleavage kobs at 10000 uM GlcN6P: < 1e-05 s⁻¹

## A6G G43U C61G
[1]
  self-cleavage kobs at 40 uM GlcN6P: < 1e-05 s⁻¹
[3]
  self-cleavage kobs at 2500 uM GlcN6P: < 1e-05 s⁻¹
[4]
  self-cleavage kobs at 10000 uM GlcN6P: < 1e-05 s⁻¹

## A6G G43U U54G C70U
[1]
  self-cleavage kobs at 40 uM GlcN6P: < 1e-05 s⁻¹

## A6G G63U
[1]
  self-cleavage kobs at 40 uM GlcN6P: < 1e-05 s⁻¹
[5]
  self-cleavage kobs at 640 uM GlcN6P: < 1e-05 s⁻¹
[2]
  self-cleavage kobs at 160 uM GlcN6P: < 1e-05 s⁻¹
[4]
  self-cleavage kobs at 10000 uM GlcN6P: < 1e-05 s⁻¹

## A6G U31A
[1]
  self-cleavage kobs at 40 uM GlcN6P: < 1e-05 s⁻¹

## A6G U31C G41U A52U
[1]
  self-cleavage kobs at 40 uM GlcN6P: < 1e-05 s⁻¹

## A6G U47G
[1]
  self-cleavage kobs at 40 uM GlcN6P: < 1e-05 s⁻¹

## A6U A12C A14G G41U G43A G63C
[1]
  self-cleavage kobs at 40 uM GlcN6P: < 1e-05 s⁻¹
[3]
  self-cleavage kobs at 2500 uM GlcN6P: < 1e-05 s⁻¹

## A6U A14C A39G
[1]
  self-cleavage kobs at 40 uM GlcN6P: < 1e-05 s⁻¹

## A6U A14G G62C
[1]
  self-cleavage kobs at 40 uM GlcN6P: < 1e-05 s⁻¹
[5]
  self-cleavage kobs at 640 uM GlcN6P: < 1e-05 s⁻¹
[2]
  self-cleavage kobs at 160 uM GlcN6P: < 1e-05 s⁻¹
[3]
  self-cleavage kobs at 2500 uM GlcN6P: < 1e-05 s⁻¹
[4]
  self-cleavage kobs at 10000 uM GlcN6P: < 1e-05 s⁻¹

## A6U A15C A48U U69G
[1]
  self-cleavage kobs at 40 uM GlcN6P: < 1e-05 s⁻¹

## A6U A15G U30C
[1]
  self-cleavage kobs at 40 uM GlcN6P: < 1e-05 s⁻¹

## A6U A36G A64U
[1]
  self-cleavage kobs at 40 uM GlcN6P: < 1e-05 s⁻¹
[5]
  self-cleavage kobs at 640 uM GlcN6P: < 1e-05 s⁻¹
[2]
  self-cleavage kobs at 160 uM GlcN6P: < 1e-05 s⁻¹
[3]
  self-cleavage kobs at 2500 uM GlcN6P: < 1e-05 s⁻¹
[4]
  self-cleavage kobs at 10000 uM GlcN6P: < 1e-05 s⁻¹

## A6U A42C C70U
[1]
  self-cleavage kobs at 40 uM GlcN6P: < 1e-05 s⁻¹
[3]
  self-cleavage kobs at 2500 uM GlcN6P: < 1e-05 s⁻¹

## A6U A64C
[1]
  self-cleavage kobs at 40 uM GlcN6P: < 1e-05 s⁻¹
[5]
  self-cleavage kobs at 640 uM GlcN6P: < 1e-05 s⁻¹
[4]
  self-cleavage kobs at 10000 uM GlcN6P: < 1e-05 s⁻¹
